According to PubChem BioAssay AID1508621 (National Center for Advancing Translational Sciences (NCATS), 2021):
This list was built around the results that the source calls inconclusive (neither active nor inactive); the mix of calls is not that of the screen. Potencies beside an inconclusive call are fits to weak or partial responses and may not hold up. Calls of active or inactive are those of the source. The call rests on the fitted dose curve; in most records, active means well fitted inhibition curve with a large enough effect; inconclusive means small, poorly fitted or top-dose-only effect; inactive means no such curve, though single readings can be large or run the other way.

Assay: Confirmatory qHTS for Identification of Small Molecule Inhibitors of Huntingtin Promoter Activity; further: nearly all actives have a fitted effect of over 65% in size
Conditions: HEK293 HTT promoter firefly luciferase reporter, 24 h; series mostly up to 57.5 µM
Text: Assay Provider: Russell L. Margolis M.D.
Department Neurology, Johns Hopkins University School of Medicine, Baltimore, MD
Huntington's Disease (HD) is a neurodegenerative disorder caused by a CAG repeat expansion in exon 1 of huntingtin (HTT). While there are currently no disease-modifying treatments for HD, recent efforts have focused on development of nucleotide-based therapeutics to lower HTT expression. As an alternative to siRNA or oligonucleotide methods, we hypothesized that suppression of HTT expression might be accomplished by small molecules that either (1) directly decrease HTT expression by suppressing HTT promoter activity or (2) indirectly decrease HTT expression by increasing the promoter activity of HTT-AS, the gene antisense to HTT that appears to inhibit expression of HTT.
We developed and employed a high throughput screen for modifiers of HTT and HTT-AS promoter activity using luminescent reporter HEK293 cells; of the 52,041 compounds tested, we identified 898 replicable hits. We used a rigorous stepwise approach to assess compound toxicity and the capacity of the compounds to specifically lower huntingtin protein in 5 different cell lines, including HEK293 cells, HD lymphoblastoid cells, mouse primary neurons, HD iPSCs differentiated into cortical-like neurons, and HD hESCs. We found no compounds which were able to lower huntingtin without lowering cell viability in all assays, though the potential efficacy of a few compounds at non-toxic doses could not be excluded.
SEQUENCE No. (1, 2, 3, etc.); […] (e.g., Cells, Incubation, Reagent, etc.); VALUE and DESCRIPTION.
1; Reagent; 4 uL; 2,500 Hek293 luciferase reporter cells per wells
3; Compound; 23 nL; Control inhibitor / compound library
5; Reagent; 2.5 uL; Firefly Luc reagent; Dual-Glo Luciferase Reporter Assay System (Promega)
6; Time; 10 min; room temperature incubation
7; Detection; Luminescence; FLuc
NOTES (numbers refer to sequence above)
1; High-throughput screening, measuring luminescence from a Hek293 luciferase reporter, was performed in 1,536 well white-walled tissue-culture treated plates. 2,500 cells were plated in 4 uL of Opti-MEM per well using a Multidrop Combi Reagent Dispenser (ThermoFisher).
2; Assay plates were cultured for 24 hours.
3; Control inhibitor (PTC124; final concentration of 50 uM) and compound library (at final concentrations of 460 nM - 57.5 uM) were added to the assay plate using the Kalypsis Pintool Robotic System equipped with 1536 pinheads.
4; Cells were then incubated for 24 hours at 37C prior to luminescence measurements.
5; In all cases, luminescence was measured using the Dual-Glo Luciferase Reporter Assay System (Promega) following the manufacturer's instructions.
6; Room temperature incubation.
7; Luminescence signal was obtained using the PerkinElmer ViewLux plate reader. Results were normalized to vehicle control (0% activity) and zero RLU (-100% activity).
Potency means the concentration at half of the fitted maximal effect; tags describe the fitted curve by direction and shape.

SMILES	Potency
O=c1c2ccccc2nc(/C=C/c2cccc3ccccc23)n1-c1ccccc1Cl	inactive
N#Cc1ccccc1NC(=O)c1cccn(Cc2ccccc2)c1=O	inconclusive: 21.3 µM [inhibitor, partial curve, poor fit]
Cc1cccc(-n2c(/C=C\c3cccc(Br)c3)nc3ccccc3c2=O)c1	inactive
O=C(N[C@H]1CN2CCC1CC2)c1ccc(Cl)cc1	inactive
Nc1c(C(=O)Nc2ccc(Cl)c(C(F)(F)F)c2)sc2nc3c(cc12)N1CCC3CC1	active: 12 µM
COc1ccc(-n2c(/C=C\c3ccccc3F)nc3ccccc3c2=O)cc1OC	inactive
CC(C)(O)C=CC(=O)[C@](C)(O)[C@H]1[C@H](O)C[C@]2(C)[C@@H]3CC=C4[C@@H](C=C(O)C(=O)C4(C)C)[C@]3(C)C(=O)C[C@@]12C	active: 0.757 µM
COC(=O)c1ccc(NC(=O)c2cccn(Cc3ccccc3C)c2=O)cc1	inconclusive: 0.19 µM [inhibitor, full curve]
O=c1c2ccccc2nc(/C=C\c2ccc(F)cc2)n1-c1ccccc1F	inconclusive: 30.1 µM [inhibitor, single point]
CCOc1ccc(NC(=O)c2cccn(Cc3cccc(Cl)c3)c2=O)cc1	inactive
Cc1ccc(-n2c(/C=C/c3ccc(Br)s3)nc3ccccc3c2=O)cc1	inactive
Cc1cc(-n2c(/C=C/c3ccc(Br)s3)nc3ccccc3c2=O)ccc1Br	inconclusive: 30.1 µM [inhibitor, single point]
Cc1ccc(-n2c(/C=C\c3ccc(F)c(F)c3)nc3ccccc3c2=O)c(C)c1	inconclusive: 26.9 µM [inhibitor, single point]
CCN(CC)C(=O)c1ccc(NC(=O)CCn2nc(-c3ccc(Cl)cc3)c3ccccc3c2=O)cc1	inconclusive: 21.3 µM [inhibitor, partial curve]
CCCCc1ccc(NC(=O)c2cccn(Cc3ccc(Cl)cc3)c2=O)cc1	inactive
COc1cccc(C2SCC(=O)Nc3c2c(C)nn3-c2ccc(C)c(Cl)c2)c1OC (stereo not drawn)	inconclusive: 30.1 µM [inhibitor, single point]
CCOC(=O)c1ccc(NC(=O)c2cccn(Cc3ccccc3F)c2=O)cc1	inconclusive: 0.478 µM [inhibitor, full curve]
CC(C)N[C@@H]1CCn2c(=O)[nH]c3cccc(c32)[C@@H]1O	inactive
CCN(CC)C(=O)N[C@@H]1C=C2c3cccc4[nH]cc(c34)C[C@@H]2N(C)C1	inactive
CCCOc1ccc(C2SCC(=O)Nc3c2c(C)nn3-c2cccc(C)c2)cc1OC (stereo not drawn)	inconclusive: 16.9 µM [inhibitor, partial curve]
CNC(=O)N1N=C(c2ccc(N)cc2)c2cc3c(cc2CC1C)OCO3 (stereo not drawn)	inactive
CSc1ccc(CN2CCN(C(=O)COc3cccc(C)c3)CC2)cc1	inconclusive: 19 µM [inhibitor, partial curve]
Cc1ccccc1Cn1cccc(C(=O)Nc2nc3ccccc3s2)c1=O	active: 12 µM
